31 molecules from publication PMC9911399, “Two distinct binding modes provide the RNA-binding protein RbFox with extraordinary sequence specificity” can be followed below.

Positions count from the first letter of the chain named. The list shows a part of the results.

T1: RBFOX1 RRM (Homo sapiens, UniProt Q9NWB1 109-208)
T1 sequence: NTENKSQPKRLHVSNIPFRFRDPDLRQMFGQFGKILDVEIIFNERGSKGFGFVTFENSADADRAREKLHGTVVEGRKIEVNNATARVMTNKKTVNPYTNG

B1: GGUAAUA (DNA:RNA)
RNA: GGGAGACCGGAAUUCAGAUUGUCCGGUAAUAUUAAAUCCCGUCGUAGCCACCA
DNA 1: CAATCTGAATTCCGGTCTCCC
DNA 2: TGGTGGCTACGACGGGATT
B2: UAGGCGG (DNA:RNA)
RNA: GGGAGACCGGAAUUCAGAUUGUCCUAGGCGGUUAAAUCCCGUCGUAGCCACCA
DNA 1: CAATCTGAATTCCGGTCTCCC
DNA 2: TGGTGGCTACGACGGGATT
B3: GAUUGGA (DNA:RNA)
RNA: B1 RNA with G26A, A28U, A29G, U30G
DNA 1: CAATCTGAATTCCGGTCTCCC
DNA 2: TGGTGGCTACGACGGGATT
B4: CACACAC (DNA:RNA)
RNA: B2 RNA with U25C, G27C, G28A, G30A, G31C
DNA 1: CAATCTGAATTCCGGTCTCCC
DNA 2: TGGTGGCTACGACGGGATT
B5: GCCCUCA (DNA:RNA)
RNA: B1 RNA with G26C, U27C, A28C, A29U, U30C
DNA 1: CAATCTGAATTCCGGTCTCCC
DNA 2: TGGTGGCTACGACGGGATT
B6: AAAGCUA (DNA:RNA)
RNA: B2 RNA with U25A, G27A, G30U, G31A
DNA 1: CAATCTGAATTCCGGTCTCCC
DNA 2: TGGTGGCTACGACGGGATT
B7: AGAUUGG (DNA:RNA)
RNA: B2 RNA with U25A, A26G, G27A, G28U, C29U
DNA 1: CAATCTGAATTCCGGTCTCCC
DNA 2: TGGTGGCTACGACGGGATT
B8: UCGAGUG (DNA:RNA)
RNA: B2 RNA with A26C, G28A, C29G, G30U
DNA 1: CAATCTGAATTCCGGTCTCCC
DNA 2: TGGTGGCTACGACGGGATT
B9: UCCCUAU (DNA:RNA)
RNA: B2 RNA with A26C, G27C, G28C, C29U, G30A, G31U
DNA 1: CAATCTGAATTCCGGTCTCCC
DNA 2: TGGTGGCTACGACGGGATT
B10: AAUCUCU (DNA:RNA)
RNA: B1 RNA with G25A, G26A, A28C, A29U, U30C, A31U
DNA 1: CAATCTGAATTCCGGTCTCCC
DNA 2: TGGTGGCTACGACGGGATT
B11: GAGUAAG (DNA:RNA)
RNA: B2 RNA with U25G, G28U, C29A, G30A
DNA 1: CAATCTGAATTCCGGTCTCCC
DNA 2: TGGTGGCTACGACGGGATT
B12: GAAAGAA (DNA:RNA)
RNA: B1 RNA with G26A, U27A, A29G, U30A
DNA 1: CAATCTGAATTCCGGTCTCCC
DNA 2: TGGTGGCTACGACGGGATT
B13: GCGGGAA (DNA:RNA)
RNA: B1 RNA with G26C, U27G, A28G, A29G, U30A
DNA 1: CAATCTGAATTCCGGTCTCCC
DNA 2: TGGTGGCTACGACGGGATT
B14: CUUAGAC (DNA:RNA)
RNA: B1 RNA with G25C, G26U, A29G, U30A, A31C
DNA 1: CAATCTGAATTCCGGTCTCCC
DNA 2: TGGTGGCTACGACGGGATT
B15: GAUUUCU (DNA:RNA)
RNA: B1 RNA with G26A, A28U, A29U, U30C, A31U
DNA 1: CAATCTGAATTCCGGTCTCCC
DNA 2: TGGTGGCTACGACGGGATT
B16: UAUCACC (DNA:RNA)
RNA: B1 RNA with G25U, G26A, A28C, U30C, A31C
DNA 1: CAATCTGAATTCCGGTCTCCC
DNA 2: TGGTGGCTACGACGGGATT
B17: AUUUACC (DNA:RNA)
RNA: B1 RNA with G25A, G26U, A28U, U30C, A31C
DNA 1: CAATCTGAATTCCGGTCTCCC
DNA 2: TGGTGGCTACGACGGGATT
B18: AUGAGUU (DNA:RNA)
RNA: B1 RNA with G25A, G26U, U27G, A29G, A31U
DNA 1: CAATCTGAATTCCGGTCTCCC
DNA 2: TGGTGGCTACGACGGGATT
B19: UCCACAA (DNA:RNA)
RNA: B1 RNA with G25U, G26C, U27C, A29C, U30A
DNA 1: CAATCTGAATTCCGGTCTCCC
DNA 2: TGGTGGCTACGACGGGATT
B20: CCAAGAG (DNA:RNA)
RNA: B1 RNA with G25C, G26C, U27A, A29G, U30A, A31G
DNA 1: CAATCTGAATTCCGGTCTCCC
DNA 2: TGGTGGCTACGACGGGATT
B21: GCGACGU (DNA:RNA)
RNA: B2 RNA with U25G, A26C, G28A, G31U
DNA 1: CAATCTGAATTCCGGTCTCCC
DNA 2: TGGTGGCTACGACGGGATT
B22: UUGGACC (DNA:RNA)
RNA: B2 RNA with A26U, C29A, G30C, G31C
DNA 1: CAATCTGAATTCCGGTCTCCC
DNA 2: TGGTGGCTACGACGGGATT
B23: CUCUAGU (DNA:RNA)
RNA: B1 RNA with G25C, G26U, U27C, A28U, U30G, A31U
DNA 1: CAATCTGAATTCCGGTCTCCC
DNA 2: TGGTGGCTACGACGGGATT
B24: AAUAUGC (DNA:RNA)
RNA: B1 RNA with G25A, G26A, A29U, U30G, A31C
DNA 1: CAATCTGAATTCCGGTCTCCC
DNA 2: TGGTGGCTACGACGGGATT
B25: UUGUAGA (DNA:RNA)
RNA: B2 RNA with A26U, G28U, C29A, G31A
DNA 1: CAATCTGAATTCCGGTCTCCC
DNA 2: TGGTGGCTACGACGGGATT
B26: GCUGGUC (DNA:RNA)
RNA: B1 RNA with G26C, A28G, A29G, A31C
DNA 1: CAATCTGAATTCCGGTCTCCC
DNA 2: TGGTGGCTACGACGGGATT
B27: GGAGAUC (DNA:RNA)
RNA: B1 RNA with U27A, A28G, A31C
DNA 1: CAATCTGAATTCCGGTCTCCC
DNA 2: TGGTGGCTACGACGGGATT
B28: GUGCUGU (DNA:RNA)
RNA: B2 RNA with U25G, A26U, G28C, C29U, G31U
DNA 1: CAATCTGAATTCCGGTCTCCC
DNA 2: TGGTGGCTACGACGGGATT
B29: GUGCCGA (DNA:RNA)
RNA: B2 RNA with U25G, A26U, G28C, G31A
DNA 1: CAATCTGAATTCCGGTCTCCC
DNA 2: TGGTGGCTACGACGGGATT
B30: GGCAAUU (DNA:RNA)
RNA: B1 RNA with U27C, A31U
DNA 1: CAATCTGAATTCCGGTCTCCC
DNA 2: TGGTGGCTACGACGGGATT
B31: UGUGAAU (DNA:RNA)
RNA: B1 RNA with G25U, A28G, U30A, A31U
DNA 1: CAATCTGAATTCCGGTCTCCC
DNA 2: TGGTGGCTACGACGGGATT

The test addresses T1, RBFOX1 RRM. The experiment in a line: EMSA; HiTS-Eq, 1 nM pool, 10 min; buffer printed only for the single-RNA assays: 10 mM Tris pH 7.5, 150 mM NaCl, 3.4 mM EDTA, 0.001% NP-40, 30 C. The conditions noted are these: tags: His6 N-terminal (pET28a); label: 5' 32P. The gist of the method: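 Purified RbFox RRM (wild type or mutant) was equilibrated for 10 min in 50 µL with 1 nM of a 5′-radiolabelled pool of RNA with 7 randomized nucleotides, its flanks annealed to DNA oligonucleotides, across increasing protein concentrations. Free RNA was separated by 8% native PAGE, excised, reverse-transcribed, PCR-barcoded and sequenced on an Illumina HiSeq 2500. Relative association constants came from read-count changes of each variant against the control reaction, normalised to the cognate motif.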
As for B1, the binding signal is 0.000922 KA relative to UGCAUGU. The figure for B2 is 0.0185 KA relative to UGCAUGU; for B3 it is 0.00802 KA relative to UGCAUGU; for B4 it is 0.00162 KA relative to UGCAUGU.

As for B5, the binding signal was 0.0103 KA relative to UGCAUGU. The figure for B6 is 0.00126 KA relative to UGCAUGU; for B7 it is 0.0125 KA relative to UGCAUGU. Take B8: the binding signal was 0.0205 KA relative to UGCAUGU. The figure for B9 is 0.00588 KA relative to UGCAUGU. The figure for B10 is 0.00583 KA relative to UGCAUGU; for B11 it is 0.0126 KA relative to UGCAUGU; for B12 it is 0.00623 KA relative to UGCAUGU.

Consider B13, for which the binding signal was 0.0202 KA relative to UGCAUGU.

On to B14, for which the binding signal was 0.00735 KA relative to UGCAUGU.

Consider B15, for which the binding signal was 0.0174 KA relative to UGCAUGU. The same measure for B16: 0.00443 KA relative to UGCAUGU; for B17: 0.00374 KA relative to UGCAUGU. Take B18: the binding signal is 0.00885 KA relative to UGCAUGU. The same measure for B19: 0.00323 KA relative to UGCAUGU. The figure for B20 is 0.0027 KA relative to UGCAUGU; for B21 it is 0.0158 KA relative to UGCAUGU. Consider B22, for which the binding signal was 0.00805 KA relative to UGCAUGU. The figure for B23 is 0.00652 KA relative to UGCAUGU. The same measure for B24: 0.00865 KA relative to UGCAUGU; for B25: 0.0152 KA relative to UGCAUGU; for B26: 0.0255 KA relative to UGCAUGU. The figure for B27 is 0.0208 KA relative to UGCAUGU; for B28 it is 0.021 KA relative to UGCAUGU.

For B29, the binding signal was 0.0204 KA relative to UGCAUGU. As to B30, the binding signal is 0.007 KA relative to UGCAUGU.

As to B31, the binding signal is 0.0228 KA relative to UGCAUGU.
